# Source: PubChem BioAssay AID1347073 (National Center for Advancing Translational Sciences (NCATS), 2019)
# The whole screen tested about 45,000 compounds, of which about 200 (0.44%) were called active. Roughly 7% stayed inconclusive and do not appear here. The call rests on the fitted dose curve; in most records, active means well fitted activation curve with a large enough effect; inconclusive means small, poorly fitted or top-dose-only effect; inactive means no such curve, though single readings can be large or run the other way. The list shows a part of the results.
# Test: qHTS of TDP-43 Inhibitors: NCGC Sytravon Library Screen; further: 0% is about no effect; nearly all actives have a fitted effect of over 55% in size
# Settings: yeast TDP-43 toxicity rescue, BacTiter-Glo growth, 24 h; series mostly up to 46.1 µM; growth rescue (activation): at the top concentration
# Method in brief: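 TDP-43-expressing yeast, pregrown in raffinose, seeded at OD600 0.02 in galactose medium with compound for 24 hr at 30 deg C. Growth read by BacTiter-Glo luminescence, so rescue of toxicity appears as activation.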
row,SMILES,growth rescue (activation)
1,CCC(=O)N1CCC1(C)C(=O)Nc1ccc(F)cc1 (centres undefined),inactive: -2.54%
2,CN1CCN(CC(=O)Nc2ccccc2[N+](=O)[O-])CC1,inactive: 12.3%
3,COc1ccc(CCCC(=O)NC(C)c2ccccc2)cc1 (centres undefined),inactive: 18.3%
4,Cc1ccc(S(=O)(=O)CC(=O)Nc2nc(C(C)(C)C)cs2)cc1,inactive: 23.9%
5,COc1ccc(C2CC(=O)Nc3cc4c(cc32)OCO4)c(OC)c1 (centres undefined),inactive: 2.51%
6,COc1cccc(CN(C)CC(=O)NCc2ccc(C)cc2)c1,inactive: -18.1%
7,CCc1ccc(NC(=O)Cn2c(C(=O)OC)cc3oc(C)cc32)cc1,inactive: 10.9%
8,CCn1nnc(NC(=O)COc2ccc([N+](=O)[O-])cc2)n1,inactive: 14.7%
9,COc1cc(COc2ccc3c(C)c(Cc4ccccc4)c(=O)oc3c2)cc(OC)c1OC,inactive: 32.7%
10,COc1ccc(C(=O)C(C)OC(=O)c2cccc(S(=O)(=O)Nc3c(C)n(C)n(-c4ccccc4)c3=O)c2)cc1 (centres undefined),inactive: 10.1%
11,CCOC(=O)c1[nH]ncc1CN1CCCC(C(=O)c2cccc(OC(C)C)c2)C1 (centres undefined),inactive: 5.63%
12,Cc1cc(/C=C2\SC(=S)N(Cc3ccco3)C2=O)c(C)n1-c1ccccc1,inactive: -0.536%
13,COc1ccc(CN2C3CCCC2CC(NC(=O)/C=C/c2ccccc2)C3)cc1 (centres undefined),inactive: 14.4%
14,O=C(N/N=C\c1cccc(Cl)c1)c1n[nH]c2c1CCCC2,inactive: -6.98%
15,C=CCn1c(Cc2cccs2)nnc1SCC(=O)NCc1ccco1,inactive: -18.1%
16,CCOC(=O)N1CCC(N2CCN(Cc3ccccc3)C(CCO)C2)CC1 (centres undefined),inactive: -1.15%
17,C=CCSc1nnc(NC(=O)CSCc2c(C)noc2C)s1,inactive: 14.5%
18,CN(C)C(CNC(=O)c1ccc2nccnc2c1)c1ccco1 (centres undefined),inactive: 3.15%
19,CC(OC(=O)c1ccccc1C(=O)N(C)Cc1ccccc1)C(=O)NC1(C#N)CCCCC1 (centres undefined),inactive: 4.78%
20,COc1cc(NC(=O)c2cccnc2Sc2ccc(C)c(C)c2)cc(OC)c1OC,inactive: -25.8%
21,CN(Cc1c(C(=O)N2CCCCCCC2)nc2ccc(Cl)cn12)C1CCOC1 (centres undefined),inactive: 10.2%
22,Cc1ccccc1-c1cc2nc(NCc3ccc(N(C)C)cc3)n(C)c(=O)c2s1,inactive: 22.8%
23,COC(=O)CSc1nc(N2CCOCC2)c2c(c1C#N)CC(C)(C)N(C)C2,inactive: -3.15%
24,O=C(CNC(=O)c1ccc(C(F)(F)F)cc1)NC1CC1,inactive: -5.17%
25,O=C(NCCCN1CCOCC1)c1ccc2nc(Cc3ccccc3F)oc2c1,inactive: -1.33%
26,Cc1ccc(-c2noc(-c3nnn(CC(=O)Nc4ccc(C)cc4Cl)c3N)n2)cc1,inactive: -5.77%
27,COc1cccc(C(=O)c2c[nH]c(C(=O)NCCCN3CCOCC3)c2)c1,inactive: -0.308%
28,COc1ccccc1CN1C[C@@H]2C[C@@H](c3ccc4nsnc4c3)N3CCC[C@@]23C1=O,inactive: 15.1%
29,COc1cccc2cc(-c3nnc(-c4ccccc4)o3)c(=O)oc12,inactive: 0.877%
